Data reported in the supplement of paper PMC8728848.
This is one part of the list.

Columns and labels:
Experiment in all cases: glycan array binding signal (z-score within array); higher = stronger binding
Conditions in all cases: glycan notation: IUPAC condensed, linker removed
Fuc(a1-2)Gal = target: Fuc(a1-2)Gal
In short: (§1)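 Columns mapping to the same glycan were averaged after glycan names were converted to IUPAC-condensed notation. The data come from 3228 arrays in the Consortium for Functional Glycomics database, limited to those with an available protein sequence. Binding is reported as a within-array Z-score averaged across arrays of one protein sequence and across linkers.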

Fuc(a1-2)Gal(b1-3)GalNAc = target: Fuc(a1-2)Gal(b1-3)GalNAc
In short: as §1

[1] = target: Fuc(a1-2)Gal(b1-3)GalNAc(b1-3)Gal
In short: as §1

[2] = target: Fuc(a1-2)Gal(b1-3)GalNAc(b1-3)Gal(a1-4)Gal(b1-4)Glc
In short: as §1

[3] = target: Fuc(a1-2)Gal(b1-3)GalNAc(b1-4)[Neu5Ac(a2-3)]Gal(b1-4)Glc
In short: as §1

Fuc(a1-2)Gal(b1-3)GlcNAc = target: Fuc(a1-2)Gal(b1-3)GlcNAc
In short: as §1

[4] = target: Fuc(a1-2)Gal(b1-3)GlcNAc(b1-3)Gal(b1-4)Glc
In short: as §1

[5] = target: Fuc(a1-2)Gal(b1-3)[Fuc(a1-4)]GlcNAc
In short: as §1

Fuc(a1-2)Gal(b1-4)Glc = target: Fuc(a1-2)Gal(b1-4)Glc
In short: as §1

Fuc(a1-2)Gal(b1-4)Glc6S = target: Fuc(a1-2)Gal(b1-4)Glc6S
In short: as §1

Fuc(a1-2)Gal(b1-4)GlcNAc = target: Fuc(a1-2)Gal(b1-4)GlcNAc
In short: as §1

[6] = target: Fuc(a1-2)Gal(b1-4)GlcNAc(b1-3)Gal(b1-4)GlcNAc
In short: as §1

[7] = target: Fuc(a1-2)Gal(b1-4)GlcNAc(b1-3)Gal(b1-4)GlcNAc(b1-3)Gal(b1-4)GlcNAc
In short: as §1

[8] = target: Fuc(a1-2)Gal(b1-4)GlcNAc6S
In short: as §1

[9] = target: Fuc(a1-2)Gal(b1-4)[Fuc(a1-3)]GlcNAc
In short: as §1

[10] = target: Fuc(a1-2)Gal(b1-4)[Fuc(a1-3)]GlcNAc(b1-3)Gal(b1-4)[Fuc(a1-3)]GlcNAc
In short: as §1

[11] = target: Fuc(a1-2)Gal(b1-4)[Fuc(a1-3)]GlcNAc(b1-3)Gal(b1-4)[Fuc(a1-3)]GlcNAc(b1-3)Gal(b1-4)[Fuc(a1-3)]GlcNAc
In short: as §1

Fuc(a1-2)Gal6S(b1-4)Glc = target: Fuc(a1-2)Gal6S(b1-4)Glc
In short: as §1

[12] = target: Fuc(a1-2)Gal6S(b1-4)Glc6S
In short: as §1

[13] = target: Fuc(a1-2)Gal6S(b1-4)GlcNAc
In short: as §1

Fuc(a1-2)GlcNAc = target: Fuc(a1-2)GlcNAc
In short: as §1

Fuc(a1-2)[Gal(a1-3)]Gal = target: Fuc(a1-2)[Gal(a1-3)]Gal
In short: as §1

[14] = target: Fuc(a1-2)[Gal(a1-3)]Gal(b1-3)GlcNAc
In short: as §1

[15] = target: Fuc(a1-2)[Gal(a1-3)]Gal(b1-4)Glc
In short: as §1

[16] = target: Fuc(a1-2)[Gal(a1-3)]Gal(b1-4)GlcNAc
In short: as §1

[17] = target: Fuc(a1-2)[Gal(a1-3)]Gal(b1-4)[Fuc(a1-3)]GlcNAc
In short: as §1

[18] = target: Fuc(a1-2)[Gal(a1-4)]Gal(b1-4)GlcNAc
In short: as §1

[19] = target: Fuc(a1-2)[GalNAc(a1-3)]Gal
In short: as §1

[20] = target: Fuc(a1-2)[GalNAc(a1-3)]Gal(b1-3)GlcNAc
In short: as §1

[21] = target: Fuc(a1-2)[GalNAc(a1-3)]Gal(b1-4)Glc
In short: as §1

B1: L-Selectin (Mus musculus), P18337 (protein)
chain: MVFPWRCEGTYWGSRNILKLWVWTLLCCDFLIHHGTHCWTYHYSEKPMNWENARKFCKQNYTDLVAIQNKREIEYLENTLPKSPYYYWIGIRKIGKMWTWVGTNKTLTKEAENWGAGEPNNKKSKEDCVEIYIKRERDSGKWNDDACHKRKAALCYTASCQPGSCNGRGECVETINNHTCICDAGYYGPQCQYVVQCEPLEAPELGTMDCIHPLGNFSFQSKCAFNCSEGRELLGTAETQCGASGNWSSPEPICQVVQCEPLEAPELGTMDCIHPLGNFSFQSKCAFNCSEGRELLGTAETQCGASGNWSSPEPICQETNRSFSKIKEGDYNPLFIPVAVMVTAFSGLAFLIWLARRLKKGKKSQERMDDPY
- glycan array binding signal (z-score) (Fuc(a1-2)Gal): -0.197
- glycan array binding signal (z-score) (Fuc(a1-2)Gal(b1-3)GalNAc): -0.486
- glycan array binding signal (z-score) [1]: -0.286
- glycan array binding signal (z-score) [2]: -0.383
- glycan array binding signal (z-score) [3]: -0.191
- glycan array binding signal (z-score) (Fuc(a1-2)Gal(b1-3)GlcNAc): -0.53
- glycan array binding signal (z-score) [4]: -0.225
- glycan array binding signal (z-score) [5]: -0.466
- glycan array binding signal (z-score) (Fuc(a1-2)Gal(b1-4)Glc): -0.154
- glycan array binding signal (z-score) (Fuc(a1-2)Gal(b1-4)Glc6S): 0.005
- glycan array binding signal (z-score) (Fuc(a1-2)Gal(b1-4)GlcNAc): -0.304
- glycan array binding signal (z-score) [6]: -0.341
- glycan array binding signal (z-score) [7]: -0.485
- glycan array binding signal (z-score) [8]: -0.448
- glycan array binding signal (z-score) [9]: -0.243
- glycan array binding signal (z-score) [10]: -0.328
- glycan array binding signal (z-score) [11]: 0.041
- glycan array binding signal (z-score) (Fuc(a1-2)Gal6S(b1-4)Glc): 0.379
- glycan array binding signal (z-score) [12]: 1.21
- glycan array binding signal (z-score) [13]: -0.072
- glycan array binding signal (z-score) (Fuc(a1-2)GlcNAc): -0.484
- glycan array binding signal (z-score) (Fuc(a1-2)[Gal(a1-3)]Gal): -0.228
- glycan array binding signal (z-score) [14]: -0.274
- glycan array binding signal (z-score) [15]: -0.253
- glycan array binding signal (z-score) [16]: -0.154
- glycan array binding signal (z-score) [17]: -0.151
- glycan array binding signal (z-score) [18]: -0.208
- glycan array binding signal (z-score) [19]: -0.448
- glycan array binding signal (z-score) [20]: -0.275
- glycan array binding signal (z-score) [21]: -0.194
